Screen size: about 310,000 compounds; about 2,200 (0.71%) showed an effect of 50% or more. Effects have a minus sign here. Some of the results follow.
target: human ether-à-go-go-related gene (hERG) potassium channel (human, UniProt Q12809); test: primary screen, population patch clamp on CHO cells stably expressing hERG
Sequence (Q12809 whole entry, looked up): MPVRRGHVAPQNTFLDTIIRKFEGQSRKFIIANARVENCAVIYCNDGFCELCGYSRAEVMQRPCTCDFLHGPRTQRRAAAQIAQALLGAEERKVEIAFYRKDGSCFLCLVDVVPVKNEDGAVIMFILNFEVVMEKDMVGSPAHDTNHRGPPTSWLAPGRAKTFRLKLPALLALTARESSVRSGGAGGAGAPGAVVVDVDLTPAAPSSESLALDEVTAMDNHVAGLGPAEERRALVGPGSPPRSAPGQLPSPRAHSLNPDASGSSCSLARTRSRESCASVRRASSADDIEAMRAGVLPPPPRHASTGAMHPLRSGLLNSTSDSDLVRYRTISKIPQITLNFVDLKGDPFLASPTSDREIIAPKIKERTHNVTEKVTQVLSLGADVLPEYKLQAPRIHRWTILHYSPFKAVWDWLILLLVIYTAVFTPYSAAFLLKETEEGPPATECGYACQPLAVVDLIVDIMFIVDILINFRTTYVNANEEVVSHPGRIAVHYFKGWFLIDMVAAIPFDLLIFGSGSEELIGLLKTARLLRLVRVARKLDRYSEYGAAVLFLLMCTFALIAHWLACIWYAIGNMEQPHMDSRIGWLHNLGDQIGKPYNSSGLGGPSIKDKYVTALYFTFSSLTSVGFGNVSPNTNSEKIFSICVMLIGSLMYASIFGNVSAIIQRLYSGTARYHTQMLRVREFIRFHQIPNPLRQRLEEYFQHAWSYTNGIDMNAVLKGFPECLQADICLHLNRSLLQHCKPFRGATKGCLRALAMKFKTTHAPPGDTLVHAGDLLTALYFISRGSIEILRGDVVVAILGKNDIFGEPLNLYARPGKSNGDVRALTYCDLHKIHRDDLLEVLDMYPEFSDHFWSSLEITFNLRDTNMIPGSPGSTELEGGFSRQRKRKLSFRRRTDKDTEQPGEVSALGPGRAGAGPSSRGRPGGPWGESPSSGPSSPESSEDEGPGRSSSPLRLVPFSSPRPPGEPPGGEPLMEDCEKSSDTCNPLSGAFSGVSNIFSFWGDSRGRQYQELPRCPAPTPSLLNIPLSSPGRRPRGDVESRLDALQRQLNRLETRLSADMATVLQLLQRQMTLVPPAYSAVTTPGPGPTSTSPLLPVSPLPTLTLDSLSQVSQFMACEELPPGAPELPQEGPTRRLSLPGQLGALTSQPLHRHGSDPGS

Structure (SMILES) | hERG current change (%, negative = inhibition) at 1uM [%]
Cc1ccc2[nH]c3c(c2c1)CN(C(=O)CN1c2ccc(F)cc2CCC1C)CC3 (stereo not drawn) | 8.28
C[C@@H]1CCC(=O)N(CC[C@H](Sc2ccc(Br)cc2)c2ccccc2)CC1 | 14.1
COc1cccc(CNC(=O)N2CCN(S(=O)(=O)c3ccc(C)cc3)CC2)c1 | 11.2
NC(=O)C1(N2CCCCC2)CCN(C(=O)CSc2nc3ccccc3s2)CC1 | -10
CCC(C)NC(=O)CN(c1cc(Cl)cc(Cl)c1)S(C)(=O)=O (stereo not drawn) | -2.99
CC(=O)c1cccc(NC(=O)N(c2ccccc2)c2ccccc2)c1 | 6.25
COc1cccc(-n2c(SCC(N)=O)nc3c([nH]c4ccccc43)c2=O)c1 | 13
C=CCn1c(C)nc2c(sc3nc4c(cc32)COC(C)(C)C4)c1=O | 14.8
S=C(NCCc1ccccc1)N/N=C/c1c(Cl)cccc1Cl | 10.2
Cc1ccc(OCC(=O)N2CCN(S(=O)(=O)c3ccc(Cl)cc3)CC2)c([N+](=O)[O-])n1 | 0.0789
O=c1oc2ccccc2c(Nc2ccccc2O)c1[N+](=O)[O-] | 6.2
CCN(CC)C(c1ccc(C)cc1)c1nnnn1C1CCCCC1.Cl (stereo not drawn) | 13
CCCn1cc(NC(=O)C2CC(c3cccc(Br)c3)=NO2)cn1 (stereo not drawn) | 0.0183
COc1ccc(NC(=O)Cn2c3ccc(OC)cc3c3nc4n(c(=O)c32)CCS4)cc1 | 19.6
O=[N+]([O-])c1ccc2[nH]c(O)c(N=NC3CS(=O)(=O)CC3O)c2c1 (stereo not drawn) | 4.42
Cc1oc(-c2ccc(F)cc2)nc1CN(Cc1ccccn1)CC1CCCO1 (stereo not drawn) | -8.34
CC(C)c1ccc(NC(=O)Cn2ncn3c(cc4ccccc43)c2=O)cc1 | 6.77
CC(Oc1ccccc1Cl)C(=O)Nc1ccc(S(=O)(=O)N2CCCC2)cc1 (stereo not drawn) | -3.86
COC(=O)C(NNc1ccccc1)(NC(=O)c1ccc(F)cc1)C(F)(F)F (stereo not drawn) | 16.1
CCOc1ccc(NC(=O)C2CCCN(S(=O)(=O)c3ccc(-n4cnnn4)cc3)C2)cc1 (stereo not drawn) | 9.6
C=CCn1c(N)cc(=O)nc1SCC(=O)NC(C)c1ccccc1 (stereo not drawn) | 11.6

Structure (SMILES) | hERG current change (%, negative = inhibition) at 1uM [%]
COC(=O)CCC(=O)OC1(C)C(=O)C=C2C=C(C3CC3)N(c3ccccc3)C=C2C1=O (stereo not drawn) | 3.72
Cc1cc(C)c(S(=O)(=O)c2ccc(C(C)(C)C)cc2)c(Cl)n1 | 18
Cc1c(C#N)c2ccccc2n1CC(=O)NCc1ccccc1 | 9.86
CNC(=O)C(=O)NCC1CCCN1S(=O)(=O)c1cccs1 (stereo not drawn) | 3.16
Cc1noc(C)c1C(=O)Nc1nc(-c2ccc(F)c(F)c2)cs1 | 4.6
O=C(O)CCCCCNc1ccc2nsnc2c1[N+](=O)[O-] | 6.57
COc1ccc(CCNC(=O)c2ccc(CS(=O)Cc3ccc(C)cc3)o2)cc1OC (stereo not drawn) | 9.19
O=C(C1CCCN(Cc2ccc(Br)cc2)C1)N1CCCCC1.O=C(O)C(=O)O (stereo not drawn) | -4.36
O=c1[nH]c(=S)n(-c2ccccc2F)c(O)c1C=NCc1ccco1 | 9.46
Cc1cccn2c(=O)c(/C=N/O)c(N3CCOCC3)nc12 | 14
O=C(O)CSc1nnc(-c2ccncc2)n1-c1ccc(Cl)cc1 | -3
O=C(CSc1ccc(F)cc1)Nc1ccccc1Br | 13.7
CCCCC1N2CC3([N+](=O)[O-])CN1CC([N+](=O)[O-])(C2)C3(C)C (stereo not drawn) | 11.1
Cc1ccccc1NC(=O)Nc1nc2ccc(S(C)(=O)=O)cc2s1 | 3.79
COc1cc(NC(=O)COC(=O)CC(NC(C)=O)c2ccccc2)cc(OC)c1 (stereo not drawn) | 8.83
CC(C)C(=O)Nc1ccc2c3c(cccc13)CC2 | 10.5
N#Cc1c(-c2ccco2)cc(C2CC2)nc1SCC(=O)c1ccccc1 | 14.9
Cc1ccccc1-n1ncc(C(C)NS(=O)(=O)c2ccccc2Cl)c1C (stereo not drawn) | 4.96
Cc1c(C(=O)O)sc2[nH]c(=O)n(Cc3ccccc3)c(=O)c12 | 14.4
CCCCn1c(N)c(N(CCOC)C(=O)c2cccc(N3C(=O)c4ccccc4C3=O)c2)c(=O)[nH]c1=O | 13.7
CCCCCCCNC(=O)C1(CC2CC(c3ccc(Cl)cc3)=NO2)CCN(C(=O)CCCCCBr)CC1 (stereo not drawn) | -52.1

Reference: PMC4336329 (PLoS ONE, 2015)
